According to the supplement of paper PMC12889115:
Some of the results follow. Cut-off read from the data, not from the text of the source: active = 25% or less and inactive = the rest. Many values rest on one well or one pass, so single values are uncertain.

Experiments:
[1] = test system: Salmonella enterica serovar Typhimurium SL1344; experiment: bacterial growth OD600 after 18 h in MHB with 0.5 µg/mL polymyxin B; higher = more bacterial growth (less inhibition); details: 25 µM; polymyxin B 0.5 µg/mL; system: broth
Protocol: (§1)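 Secondary screen of the 553 primary hits at 25 µM. (i) S. Typhimurium SL1344 grown in Mueller-Hinton broth with 0.5 µg/mL polymyxin B, OD600 read after 18 h. (ii) SAFIRE assay: RAW 264.7 macrophages infected with S. Typhimurium sifB::gfp (MOI 30); compound added 2 h post-infection; cells fixed at 18 h; GFP-positive pixel fraction per macrophage imaged by confocal microscopy and expressed as % of DMSO control.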

[2] = test system: Salmonella enterica serovar Typhimurium SL1344; experiment: intramacrophage bacterial GFP load (SAFIRE), percent of DMSO control (% of DMSO); higher = more intracellular bacteria (less inhibition); details: 25 µM; system: infected RAW 264.7 macrophages
Protocol: as §1
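Throughout, for bacterial growth OD600 after 18 h in MHB with 0.5 µg/mL polymyxin B: polymyxin B level opens the outer membrane while sparing the inner membrane, with novobiocin wells as reference growth inhibitor.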
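Throughout, for intramacrophage bacterial GFP load (SAFIRE), percent of DMSO control: compounds tested were the hits of an earlier 50 µM broth growth screen of a drug-like diversity library run with polymyxin B.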

Structure (SMILES)	bacterial growth OD600 [1]	intramacrophage bacterial GFP load [2]
Cc1c(CN2CCOc3ccc(C4=Cc5ccccc5CC4)cc3C2)c(=O)n(-c2ccccc2)n1C	-0.013	active: 1.2
O=C(c1ccc(N2CCCC2=O)cc1)N(Cc1ccncc1)Cc1cccc(OCCc2ccc(F)cc2)c1	-0.009	inactive: 49.1
COc1ccc(CCNC(=O)c2oc3ccc(C)cc3c2C)cc1OC	0.42	inactive: 138
CN(Cc1cn(C)nc1-c1ccc2c(c1)OCCO2)Cc1cccc2ncccc12	0.635	inactive: 108
COc1cccc(-c2ccc(NC(=O)C3CCCN3C(=O)C3(C)CC3)cc2)c1 (stereo not drawn)	0.16	inactive: 68.4
CN1CCN(C(=O)c2cc(COc3ccc(F)cc3F)on2)CC1c1ccccc1 (stereo not drawn)	0.048	inactive: 68.4
CN(C(=O)CC(c1ccccc1)c1ccccc1Cl)C1CCOCC1 (stereo not drawn)	0.005	inactive: 64.5
O=C(CC(c1ccccc1)c1cccc(Cl)c1)N1CCOCC1 (stereo not drawn)	0.531	inactive: 146
CCOC(=O)C1(Cc2cccc(Cl)c2)CCCN(Cc2nccn2CC)C1 (stereo not drawn)	0.003	active: 6.09
COc1ccc(CN2Cc3cc(C)ccc3OC(c3ccsc3)C2)cc1O (stereo not drawn)	-0.006	inactive: 41.4
CC(C)Cc1ccc(C(=O)N2CCCC(CNC(=O)c3ccc(F)cc3)C2)cc1 (stereo not drawn)	0.003	inactive: 74.4
O=C(c1cccs1)N1CCc2[nH]nc(-c3cccc(F)c3)c2C1	0.006	inactive: 143
CCOC(=O)C1(Cc2ccccc2C)CCCN(S(=O)(=O)c2ccsc2)C1 (stereo not drawn)	-0.003	inactive: 45.5
Cc1ccc(-c2n[nH]cc2CN2CCN(c3ccc(Cl)cn3)CC2)cc1C	0.001	active: 6.58
COc1cc(C(=O)NCCC2=CC[C@H]3C[C@@H]2C3(C)C)ccc1OC1CCN(C(C)=O)CC1	0.003	inactive: 78.3
Cc1cccc(-c2cnc(-c3ccncc3)nc2C2CCN(C(=O)CC3=CCCCC3)CC2)c1	0.001	inactive: 102
Cc1nc(C(=O)NCc2cccnc2-n2ccnc2)cs1	0.552	inactive: 157
COc1cccc(OCC2CCCN(C(=O)CCC3(Cc4ccccc4)CCC(=O)N3)C2)c1 (stereo not drawn)	0.008	inactive: 72.8
CCC(=O)N(Cc1cc2c(OC)ccc(OC)c2nc1N1CCOCC1)CC1COc2ccccc2O1 (stereo not drawn)	0.008	inactive: 74.9
CCCc1cc(CN(C)C(=O)CC2(c3cccc(C(F)(F)F)c3)CC(=O)N(CC)C2=O)n[nH]1 (stereo not drawn)	0.016	active: 11.5
Cc1ccn2c(CNCc3ccc4c(c3)OCO4)c(C(=O)N3CCCCCC3)nc2c1	0.516	inactive: 32.2
CCS(=O)(=O)c1ncc(CN(C)C(C)c2ccccc2OC)n1Cc1ccccc1 (stereo not drawn)	0.003	active: 21
CCOC(=O)C1(Cc2ccccc2C)CCCN(C(=O)c2sccc2C)C1 (stereo not drawn)	0.004	inactive: 111
O=C(CC1(c2ccccc2F)CC(=O)N(C2CCCC2)C1=O)N(CC1CCC1)CC1CCCO1 (stereo not drawn)	-0.003	inactive: 144
O=C(CC1(c2cccc(C(F)(F)F)c2)CC(=O)N(C2CC2)C1=O)N(CC1CCC1)CC1CCCO1 (stereo not drawn)	0.006	inactive: 80.2
COc1cc(CN2Cc3cc(Cl)ccc3OC(C)C2)cc2c1OCO2 (stereo not drawn)	-0.011	inactive: 44
O=C(c1cn(Cc2ccc(F)cc2)nn1)N1CC[C@@H]2CCCC[C@H]2C1	-0.009	inactive: 109
Fc1cc(CNc2nc3nonc3nc2N2CCOCC2)cc(C(F)(F)F)c1	-0.002	inactive: 138
O=C(c1ccc(Oc2ccccc2)cc1)C1CCCN(C(=O)CN2C(=O)CSC2=O)C1 (stereo not drawn)	0.002	inactive: 85.8
